# From PubChem BioAssay AID504333 (National Center for Advancing Translational Sciences (NCATS), 2011)
# The whole screen tested about 360,000 compounds, of which about 16,000 (4.4%) were called active. The shares of active, inactive and inconclusive entries below differ from those in the screen. Calls follow the shape of the dose curve; as a rule, active = well fitted inhibition curve with a large enough effect; inconclusive = small, poorly fitted or top-dose-only effect; inactive = no such curve, though single readings can be large or run the other way. Potencies of inconclusive entries are doubtful fits and often do not repeat.
# Target: Bromodomain adjacent to zinc finger domain protein 2B (Homo sapiens) (UniProt Q9UIF8)
# Experiment: qHTS Assay for Inhibitors of BAZ2B; also: nearly all actives have a fitted effect of over 60% in size
# Settings: AlphaScreen BAZ2B-H3K14Ac peptide displacement; activity change, negative = inhibition: at 114 µM (top of the series)
# Method in brief: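 AlphaScreen luminescence quantifies BAZ2B engagement of H3K14Ac peptide; the protein and biotinylated peptide are both at 50 nM final, buffer PBS pH 7.4 with 0.01% Tween-20, all steps at room temperature.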
# % is scaled to controls: 0 for no effect and ±100 for the full control effect; potency is read from the fitted curve at half-maximal effect; tags tell the direction and shape of the fitted curve.
# UniProt Q9UIF8, sequence (Q9UIF8 whole entry, looked up, the tested form may be a part): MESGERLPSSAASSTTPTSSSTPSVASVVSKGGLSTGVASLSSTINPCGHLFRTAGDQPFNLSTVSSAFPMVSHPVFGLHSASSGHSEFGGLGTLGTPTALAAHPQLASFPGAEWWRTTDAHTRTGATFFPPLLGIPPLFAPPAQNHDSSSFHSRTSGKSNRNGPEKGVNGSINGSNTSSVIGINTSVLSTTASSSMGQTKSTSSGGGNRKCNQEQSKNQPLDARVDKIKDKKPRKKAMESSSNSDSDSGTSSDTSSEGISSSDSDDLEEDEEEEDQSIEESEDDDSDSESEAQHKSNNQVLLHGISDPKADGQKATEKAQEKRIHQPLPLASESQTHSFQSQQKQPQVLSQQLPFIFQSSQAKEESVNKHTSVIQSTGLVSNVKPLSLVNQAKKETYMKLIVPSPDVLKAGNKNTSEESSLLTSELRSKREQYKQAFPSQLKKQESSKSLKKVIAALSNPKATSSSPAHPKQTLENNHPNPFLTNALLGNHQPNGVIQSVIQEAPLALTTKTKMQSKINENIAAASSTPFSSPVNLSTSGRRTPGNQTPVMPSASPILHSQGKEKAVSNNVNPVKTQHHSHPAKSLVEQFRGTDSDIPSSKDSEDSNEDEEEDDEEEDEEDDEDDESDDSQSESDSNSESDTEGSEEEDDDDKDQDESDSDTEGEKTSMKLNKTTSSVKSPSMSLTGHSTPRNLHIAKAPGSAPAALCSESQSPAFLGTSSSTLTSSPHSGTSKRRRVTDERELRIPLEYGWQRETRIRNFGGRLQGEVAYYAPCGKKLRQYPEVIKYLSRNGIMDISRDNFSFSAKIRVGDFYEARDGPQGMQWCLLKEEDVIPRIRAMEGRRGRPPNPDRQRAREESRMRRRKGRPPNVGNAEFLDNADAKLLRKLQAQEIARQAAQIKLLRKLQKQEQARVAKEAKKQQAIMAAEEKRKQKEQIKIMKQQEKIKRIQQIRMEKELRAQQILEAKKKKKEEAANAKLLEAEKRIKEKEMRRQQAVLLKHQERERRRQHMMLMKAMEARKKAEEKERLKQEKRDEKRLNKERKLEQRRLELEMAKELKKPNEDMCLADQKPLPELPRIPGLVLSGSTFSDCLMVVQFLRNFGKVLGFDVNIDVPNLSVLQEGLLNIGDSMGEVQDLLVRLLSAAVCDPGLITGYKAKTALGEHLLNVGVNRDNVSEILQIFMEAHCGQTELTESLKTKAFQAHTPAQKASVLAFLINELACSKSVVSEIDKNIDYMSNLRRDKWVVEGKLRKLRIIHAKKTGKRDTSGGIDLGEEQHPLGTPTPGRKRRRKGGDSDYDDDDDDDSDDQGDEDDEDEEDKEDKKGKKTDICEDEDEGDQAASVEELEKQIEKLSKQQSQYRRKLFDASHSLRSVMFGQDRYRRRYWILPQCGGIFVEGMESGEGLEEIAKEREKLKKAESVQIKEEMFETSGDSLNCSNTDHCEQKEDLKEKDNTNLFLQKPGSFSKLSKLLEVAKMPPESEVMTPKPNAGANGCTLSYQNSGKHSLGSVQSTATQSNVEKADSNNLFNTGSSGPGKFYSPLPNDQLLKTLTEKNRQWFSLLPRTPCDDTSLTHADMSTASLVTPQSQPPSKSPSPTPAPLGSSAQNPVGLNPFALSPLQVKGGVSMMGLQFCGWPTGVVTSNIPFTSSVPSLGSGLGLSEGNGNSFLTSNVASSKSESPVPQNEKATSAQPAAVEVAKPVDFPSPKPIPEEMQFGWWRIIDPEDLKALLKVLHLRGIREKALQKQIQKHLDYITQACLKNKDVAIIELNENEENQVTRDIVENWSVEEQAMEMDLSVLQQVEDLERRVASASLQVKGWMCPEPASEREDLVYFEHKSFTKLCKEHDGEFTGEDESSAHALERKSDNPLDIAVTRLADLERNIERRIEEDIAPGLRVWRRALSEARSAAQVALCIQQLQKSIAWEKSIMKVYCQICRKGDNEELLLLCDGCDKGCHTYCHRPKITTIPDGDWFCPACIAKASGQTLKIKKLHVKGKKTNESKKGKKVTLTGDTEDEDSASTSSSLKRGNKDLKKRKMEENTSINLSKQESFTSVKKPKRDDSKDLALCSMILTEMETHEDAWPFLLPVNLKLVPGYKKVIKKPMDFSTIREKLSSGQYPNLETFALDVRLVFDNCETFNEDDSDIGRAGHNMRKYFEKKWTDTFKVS
Compound,Potency,"activity change, negative = inhibition"
O=C1C(=O)c2ccccc2-c2ccccc21,"inconclusive: 22.4 µM [inhibitor, partial curve]",–
Oc1cc2c(cc1CN1CCN(c3ccccc3F)CC1)OCO2,"inconclusive: 50.1 µM [inhibitor, partial curve]",–
NC(N)=N/N=C/c1ccc(N(c2ccccc2)c2ccccc2)cc1,–,inactive: -19.5%
COc1ccc(OC)c(CC(=O)N(C)C2CCCN(Cc3ccccc3F)C2)c1 (stereo not drawn),"inconclusive: 89.1 µM [inhibitor, single point]",–
COc1ccc(CNCCc2c[nH]c3ccccc23)c(OC)c1C,active: 56.2 µM,–
COC(=O)c1cncn1C(C)c1ccccc1 (stereo not drawn),"inconclusive: 56.2 µM [inhibitor, partial curve]",–
CC(=NCc1cccnc1)c1c(O)n(C2CCCCC2)c(=O)[nH]c1=O,"inconclusive: 100 µM [inhibitor, single point]",–
CCc1c(C)nc(N)nc1N1N=C1SC,"inconclusive: 7.08 µM [inhibitor, single point]",–
Cc1c(C=C2C(=O)N(C)C(=S)N(C)C2=O)c2ccccc2n1CC(=O)NCC1CCCO1 (stereo not drawn),"inconclusive: 89.1 µM [inhibitor, single point]",–
C(#CCN1CCOCC1)COCC#Cc1ccccc1,"inconclusive: 79.4 µM [inhibitor, single point]",–
COc1cc(Br)c(CNCCc2ccc3c(c2)OCO3)cc1OC,"inconclusive: 89.1 µM [inhibitor, single point]",–
Cc1ccc(S(=O)(=O)Oc2ccccc2C=C2C(=O)N(C)C(=O)N(C)C2=O)cc1,–,inactive: -0.341%
COc1ccc2[nH]c(C)c(CCNCc3cn(C)c4ccccc34)c2c1,active: 17.8 µM,–
CCOP(=O)(OCC)c1nc(-c2cccc3ccccc23)oc1NCCc1ccc(OC)cc1,–,inactive: 42%
O=C(Cc1ccccc1)N1CCN(Cc2ccccc2Cl)CC1,active: 20 µM,–
CN(C)c1ccc(NC(=O)CN2CCC(O)(c3ccccc3)CC2)cc1,"inconclusive: 56.2 µM [inhibitor, partial curve, poor fit]",–
Cc1nc2c(=O)n(C)c(=O)nc-2n(C)n1,–,inactive: -4.79%
O=C(c1cc(C(=O)NCc2ccccc2)c(=O)n(Cc2ccccc2)c1)c1cc(Br)ccc1O,"inconclusive: 35.5 µM [inhibitor, partial curve, poor fit]",–
O=C(c1ccc(CS(=O)(=O)c2ccccc2)o1)N1CCC2(CC1)OCCO2,"inconclusive: 89.1 µM [inhibitor, single point]",–
CCOc1cc(CN2CCN(C(=O)Cc3ccccc3)CC2)ccc1OC,active: 56.2 µM,–
CCOc1ccc(N2C(=O)NC(=O)/C(=C/c3cnc(SC)nc3)C2=O)cc1,"inconclusive: 89.1 µM [inhibitor, single point]",–
CN1C(=O)/C(=C/c2ccc(N3CCCCCC3)o2)C(=O)NC1=S,"inconclusive: 79.4 µM [inhibitor, single point]",–

Compound,Potency,"activity change, negative = inhibition"
CC/C(=N\Nc1cccc2ccccc12)c1c(O)[nH]c(=O)[nH]c1=O,"inconclusive: 70.8 µM [inhibitor, single point]",–
Cc1ccc(C(=O)N[C@@H](C)CN2C3=NC[C@H](Cc4ccccc4)N3C[C@H]2Cc2ccc(O)cc2)cc1Br,"inconclusive: 50.1 µM [inhibitor, partial curve]",–
Cc1[nH]c2ccccc2c1CCNCc1cccnc1,"inconclusive: 79.4 µM [inhibitor, partial curve]",–
CCOC(=O)COc1ccc(/C=C2\C(=O)NC(=S)N(c3ccc(OC)cc3)C2=O)cc1OC,"inconclusive: 79.4 µM [inhibitor, single point]",–
COC(=O)C1=C(c2c(C)noc2C)C[C@@H]2CC[C@H]1N2C(=O)NC1CCCCC1,–,inactive: 10.3%
COc1ccccc1N1CCN(Cc2cccc(Br)c2)CC1,active: 50.1 µM,–
CC1=NN(c2ccccc2)C(=O)/C1=C/c1c(O)[nH]c(=O)[nH]c1=O,"inconclusive: 44.7 µM [inhibitor, partial curve]",–
O=C(N/N=C/c1c(O)n(Cc2ccccc2)c(=O)[nH]c1=O)c1ccncc1,active: 50.1 µM,–
CCN1C(=O)C(=Cc2ccc(N3CCOCC3)o2)C(=O)N(CC)C1=S,active: 39.8 µM,–
Cn1c(=O)c2c(nc(N/N=C/c3c(O)n(C4CCCCC4)c(=S)[nH]c3=O)n2C)n(C)c1=O,active: 50.1 µM,–
O=C(Cc1ccccc1)OCc1ccccc1,–,inactive: 155%
Cc1cc(C=C2C(=O)NC(=S)NC2=O)c(C)n1-c1ccc2c(c1)OCO2,"inconclusive: 79.4 µM [inhibitor, single point]",–
Cc1ccnc(NS(=O)(=O)c2ccc(N=Cc3c(O)n(C)c(=O)n(C)c3=O)cc2)n1,"inconclusive: 70.8 µM [inhibitor, single point]",–
COc1ccc2nc(NC(=O)CCc3nc(C4=CCN(C)CC4)no3)sc2c1,"inconclusive: 89.1 µM [inhibitor, single point]",–
CCOC(=O)c1c(N)n(CCN2CCOCC2)c2nc3ccccc3nc12,"inconclusive: 11.2 µM [inhibitor, partial curve, poor fit]",–
O=C(Oc1cccnc1)c1ccc(Cl)cc1,"inconclusive: 89.1 µM [inhibitor, single point]",–
Cc1ccnc(-n2c(C)nc3ccccc3c2=O)c1,–,inactive: 0.824%
O=C(O)COc1ccc(/C=C2/SC(=S)N(Cc3ccccc3)C2=O)cc1,"inconclusive: 44.7 µM [inhibitor, partial curve]",–
C=CCN1C(=O)NC(=O)/C(=C\c2ccc(-c3ccccc3[N+](=O)[O-])o2)C1=O,active: 79.4 µM,–
Cc1ccc(-c2noc(=O)n2CC(=O)Nc2ccc(S(=O)(=O)NC3CC3)cc2)cc1,"inconclusive: 100 µM [inhibitor, single point]",–
O=C(Nc1ccc(Cl)c(Cl)c1)c1ccco1,"inconclusive: 89.1 µM [inhibitor, single point]",–
